# Source: article PMC4336329 (PLoS ONE, 2015)
# Screen size: about 310,000 compounds; about 14,000 (4.5%) showed an effect of 50% or more. Effects have a minus sign here. The list shows a part of the results.
# Biological target: human ether-à-go-go-related gene (hERG) potassium channel (human, UniProt Q12809)
# Assay: primary screen, population patch clamp on CHO cells stably expressing hERG
# 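Also: peak tail current of the secondary pulse compared with the same well before compound.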
# Sequence of human ether-à-go-go-related gene (hERG) potassium channel (Q12809 whole entry, looked up): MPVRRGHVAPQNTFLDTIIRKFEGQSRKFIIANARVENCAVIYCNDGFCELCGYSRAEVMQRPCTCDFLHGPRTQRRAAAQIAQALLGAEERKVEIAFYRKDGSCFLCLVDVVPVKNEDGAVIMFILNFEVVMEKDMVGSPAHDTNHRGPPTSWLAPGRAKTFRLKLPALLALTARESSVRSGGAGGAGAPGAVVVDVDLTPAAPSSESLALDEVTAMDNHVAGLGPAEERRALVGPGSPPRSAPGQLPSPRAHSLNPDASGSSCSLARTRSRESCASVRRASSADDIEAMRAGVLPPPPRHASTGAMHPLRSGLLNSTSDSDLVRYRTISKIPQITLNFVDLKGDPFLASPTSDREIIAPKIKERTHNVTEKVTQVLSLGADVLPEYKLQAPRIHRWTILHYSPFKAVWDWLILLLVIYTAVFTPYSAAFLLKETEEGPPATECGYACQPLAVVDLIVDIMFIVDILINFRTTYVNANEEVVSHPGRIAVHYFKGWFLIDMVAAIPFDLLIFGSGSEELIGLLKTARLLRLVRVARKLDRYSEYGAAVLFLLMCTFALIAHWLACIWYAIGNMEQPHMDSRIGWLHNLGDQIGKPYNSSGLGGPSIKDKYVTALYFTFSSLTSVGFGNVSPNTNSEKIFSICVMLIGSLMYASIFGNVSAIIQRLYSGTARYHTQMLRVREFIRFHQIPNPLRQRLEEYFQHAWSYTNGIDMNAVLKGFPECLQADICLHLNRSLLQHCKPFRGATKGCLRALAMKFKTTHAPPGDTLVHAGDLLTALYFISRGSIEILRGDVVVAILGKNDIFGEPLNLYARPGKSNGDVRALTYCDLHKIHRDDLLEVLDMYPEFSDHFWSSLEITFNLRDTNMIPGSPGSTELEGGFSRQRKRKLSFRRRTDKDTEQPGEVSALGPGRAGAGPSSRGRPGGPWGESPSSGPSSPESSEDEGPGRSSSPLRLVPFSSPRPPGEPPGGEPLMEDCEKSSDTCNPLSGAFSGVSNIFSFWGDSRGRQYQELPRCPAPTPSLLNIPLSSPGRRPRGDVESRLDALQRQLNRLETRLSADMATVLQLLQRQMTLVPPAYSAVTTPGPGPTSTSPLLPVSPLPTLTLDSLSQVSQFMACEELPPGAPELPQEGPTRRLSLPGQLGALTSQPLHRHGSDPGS
row,Compound,"hERG current change (%, negative = inhibition) at 10uM [%]"
1,COc1cccc(-n2ccnc2SCC(=O)Nc2nccs2)c1,-6.22
2,COc1ccccc1-n1c(SCC(=O)NC(C)(C)C)nc(O)c(Cc2ccccc2)c1=O,5.22
3,Cc1ccc(NC(=O)Cn2cc(S(=O)(=O)c3ccc(C)cc3)c(=O)c3cc(F)ccc32)cc1,-12.1
4,Cc1cc(C)cc(Nc2ccc(C(=O)O)cc2[N+](=O)[O-])c1,14.4
5,O=C(Nc1ccccc1)N1CCn2c(nc3ccccc32)C1,-12.9
6,O=C(NCCc1ccc([N+](=O)[O-])cc1)c1ccccc1,-11.7
7,Nc1ccc(N2CCOCC2)cc1C(F)(F)F,22.2
8,O=C(Nc1cccc(Oc2ccc3c(c2)C(=O)NC3=O)c1)c1cccs1,-17
9,COc1ccc2oc(C(=O)OCC(=O)NCCc3ccccc3)c(C)c2c1,-3.25
10,CN1C(=O)C(=Cc2ccccc2OCc2ccc(Cl)cc2)C(=O)N(C)C1=O,7.86
11,COC(c1ccccc1)c1nc2ccccc2[nH]c1=O (stereo not shown),12.2
12,CCn1nc(C)c(/C=N/NC(=O)Cc2ccc(Cl)cc2)c1C,-21.2
13,COC(=O)C1=C(c2ccc(F)cc2OCc2ccccc2)C[C@@H]2CC[C@H]1N2C(=O)NCc1cccc(C(F)(F)F)c1,11.4
14,C/C(=N\OCC(=O)Nc1nc2ccccc2s1)c1ccccc1,-8.06
15,C=CCOc1ccc(/C=N/NC(=O)CN2CCOCC2)cc1OCC,12.4
16,CSc1nccc(Oc2ccc(C#N)cc2)n1,-10.8
17,C[C@H](NC(=O)C1CCN(S(=O)(=O)c2ccccc2)CC1)C(=O)NCc1ccc(Cl)cc1Cl,-34.5
18,Cc1ccc(CNC(=O)CCC2CCCN(Cc3cc4ccccc4o3)C2)o1 (stereo not shown),-69.2
19,CCC1CCCCN1C(=S)NC(=O)c1cccc([N+](=O)[O-])c1 (stereo not shown),17.1
20,Cc1nn(-c2ccc(Cl)cc2)c(Cl)c1/C=N/NC(=O)c1ccc(NS(=O)(=O)c2cccs2)cc1,2.4
21,COc1cccc(-n2c(C)c(C(C)=O)c(C(C)=O)c2C)c1,0.658
22,Cc1nnc(C)n1/N=C/c1ccc(O)cc1,3.42

row,Compound,"hERG current change (%, negative = inhibition) at 10uM [%]"
1,Cc1c(Cl)c(C(F)(F)F)nn1CC(=O)NCc1ccco1,11.8
2,Cc1ccccc1NC(=O)C1c2cccc[n+]2CC(=O)N1c1c(C)cccc1C.[I-] (stereo not shown),13.8
3,CCOC(=O)c1sc(NC(C)=O)nc1-c1ccccc1,4.96
4,COc1ccc(N2CSC3=C(C#N)C(c4cc(OC)ccc4OC)CC(=O)N3C2)c(OC)c1 (stereo not shown),-17.1
5,CCNC(=O)CC1C(=O)N(c2ccc(F)cc2)C(=S)N1CCc1ccncc1 (stereo not shown),-22.3
6,CCc1ccc2nc(N(CCN(C)C)C(=O)c3ccc4ncsc4c3)sc2c1.Cl,-60.6
7,CN(C)CCn1c(NC(=O)c2ccc(Cl)cc2)nc2ccccc21,-20.9
8,OC[C@@H]1CCCN1Cc1nc(-c2cccs2)no1,16.3
9,Cn1ncc(C#N)c1/N=C/N1CCCCC1,10.6
10,CC(C)(C)c1ccc(C(=O)OC/C(O)=C(\C#N)c2nc3ccccc3s2)cc1,5.3
11,Fc1ccc(-c2ccnn2-c2ccccc2)cc1,14.5
12,Cc1cc(C(=O)NNC(=S)NCc2ccco2)n(C)n1.c1ccccc1,14.6
13,O=c1[nH]c2ccc(S(=O)(=O)N3CCN(c4ccccc4)CC3)cc2[nH]c1=O,0.0563
14,CC(=O)c1c(C)oc2c1cc(O)c1ccccc12,3.2
15,COc1ccc(CNC(=O)CCNS(=O)(=O)c2cccc3nsnc23)cc1,-1.19
16,COc1ccc(N=C2SC(C(=O)Nc3ccc(OC)cc3)CC(=O)N2CCN2CCOCC2)cc1 (stereo not shown),-39
17,COC(=O)c1cc(S(=O)(=O)NCc2cc(OC)c(OC)c(OC)c2)cn1C,12.5
18,Cc1ccc(-n2[nH]c(C)c(C=Nc3ccc(S(=O)(=O)Nc4nc(C)cc(C)n4)cc3)c2=O)c(C)c1,-1.85
19,Cc1ccnc(SCc2cc(=O)c(OC(=O)c3ccc(S(=O)(=O)N(C)C)cc3)co2)n1,-36.4
20,CCN(CC)c1ccc(NC(=O)COc2ccccc2C#N)cc1S(=O)(=O)Nc1ccccc1OC,3.96
21,CN(CCc1ccccn1)C(=O)CCC1CCCN(C(=O)c2ccsc2)C1 (stereo not shown),-1.56
